# Results reported in PubChem BioAssay AID1347165 (National Center for Advancing Translational Sciences (NCATS), 2019).
# About 5,700 (2.6%) of roughly 220,000 compounds were called active. This list was built around the results that the source calls inconclusive (neither active nor inactive); the mix of calls is not that of the screen. Calls follow the shape of the dose curve; as a rule, active = well fitted inhibition curve with a large enough effect; inconclusive = small, poorly fitted or top-dose-only effect; inactive = no such curve, though single readings can be large or run the other way. Potencies beside an inconclusive call are fits to weak or partial responses and may not hold up.
# Molecular target: Lysine-specific demethylase 5B (Homo sapiens) (UniProt Q9UGL1)
# Sequence of UniProt Q9UGL1 (Q9UGL1 whole entry, looked up): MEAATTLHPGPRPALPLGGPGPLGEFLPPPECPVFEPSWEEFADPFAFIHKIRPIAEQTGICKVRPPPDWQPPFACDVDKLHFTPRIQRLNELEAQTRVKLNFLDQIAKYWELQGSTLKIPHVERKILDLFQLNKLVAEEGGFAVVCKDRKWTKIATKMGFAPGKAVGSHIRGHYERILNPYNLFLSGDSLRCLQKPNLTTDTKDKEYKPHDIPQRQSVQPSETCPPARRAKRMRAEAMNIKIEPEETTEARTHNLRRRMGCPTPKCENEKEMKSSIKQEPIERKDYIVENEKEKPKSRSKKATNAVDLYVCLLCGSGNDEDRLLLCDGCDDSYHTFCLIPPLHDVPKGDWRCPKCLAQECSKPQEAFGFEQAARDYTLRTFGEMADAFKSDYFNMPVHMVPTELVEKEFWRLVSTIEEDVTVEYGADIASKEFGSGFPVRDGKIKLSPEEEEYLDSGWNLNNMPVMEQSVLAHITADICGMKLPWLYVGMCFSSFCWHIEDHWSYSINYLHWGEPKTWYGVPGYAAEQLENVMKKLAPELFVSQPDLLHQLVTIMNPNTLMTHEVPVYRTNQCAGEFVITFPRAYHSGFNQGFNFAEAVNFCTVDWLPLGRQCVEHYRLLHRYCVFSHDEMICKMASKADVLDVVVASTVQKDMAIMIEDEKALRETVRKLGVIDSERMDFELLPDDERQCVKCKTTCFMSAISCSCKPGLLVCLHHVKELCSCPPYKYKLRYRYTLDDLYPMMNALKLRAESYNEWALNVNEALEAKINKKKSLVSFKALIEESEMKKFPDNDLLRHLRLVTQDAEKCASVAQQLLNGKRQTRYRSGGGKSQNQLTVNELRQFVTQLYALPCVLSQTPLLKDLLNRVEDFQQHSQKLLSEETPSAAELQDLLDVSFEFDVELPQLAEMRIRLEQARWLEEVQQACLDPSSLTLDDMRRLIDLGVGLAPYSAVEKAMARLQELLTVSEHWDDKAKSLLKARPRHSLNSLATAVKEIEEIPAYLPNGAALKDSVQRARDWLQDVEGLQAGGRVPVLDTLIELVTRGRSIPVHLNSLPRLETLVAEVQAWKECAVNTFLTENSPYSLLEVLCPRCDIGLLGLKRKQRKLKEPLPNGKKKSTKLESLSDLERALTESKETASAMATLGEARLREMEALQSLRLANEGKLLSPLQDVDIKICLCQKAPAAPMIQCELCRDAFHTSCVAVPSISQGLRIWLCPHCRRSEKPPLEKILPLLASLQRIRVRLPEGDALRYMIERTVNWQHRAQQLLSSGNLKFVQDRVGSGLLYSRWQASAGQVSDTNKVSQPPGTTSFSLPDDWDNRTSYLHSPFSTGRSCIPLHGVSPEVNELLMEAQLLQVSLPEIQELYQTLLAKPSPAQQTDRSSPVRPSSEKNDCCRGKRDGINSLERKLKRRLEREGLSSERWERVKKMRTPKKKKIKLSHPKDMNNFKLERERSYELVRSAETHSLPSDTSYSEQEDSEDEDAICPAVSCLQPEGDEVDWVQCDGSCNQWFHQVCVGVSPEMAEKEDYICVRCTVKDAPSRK
# Test: Primary screen for KDM5B Histone Demethylases FDH-coupled qHTS; also: nearly all actives have a fitted effect of over 70% in size; as to activity change, negative = inhibition: 0% is about no effect
# Settings: FDH-coupled NADH fluorescence (FDH is formaldehyde dehydrogenase); activity change, negative = inhibition: at 57.7 µM (top of the series) unless noted
# Summary of the method: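 Inhibition is measured as reduced NADH fluorescence generation from FDH coupling to formaldehyde release. Truncated KDM5BΔAP at 200 nM final acts on H3K4me3 peptide (12.5 µM in substrate mix) in pH 7.5 HEPES buffer with Tween-20, 30 min, room temperature.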
# Potency is read from the fitted curve at half-maximal effect; tags tell the direction and shape of the fitted curve.
SMILES,Potency,"activity change, negative = inhibition"
Cc1ccc(-n2nnnc2SCC(=O)Nc2ccc3nccnc3c2)c(C)c1,"inconclusive: 1.78 µM [inhibitor, partial curve, poor fit]",
Cc1cccc(C)c1Nc1c(-c2ccccc2Cl)nc2cnccn12,"inconclusive: 28.2 µM [inhibitor, partial curve, poor fit]",
Cc1ccc(-c2onc(C)c2C)cc1S(=O)(=O)NCc1cccs1,"inconclusive: 10 µM [inhibitor, partial curve, poor fit]",
CCc1nn(CC(=O)Nc2ccc(C)c(F)c2)c(=O)c2cc3cc(C)ccc3n12,"inconclusive: 20 µM [inhibitor, partial curve, poor fit]",
CCCCN1CC(c2nc3ccccc3n2CCCCOc2ccccc2C)CC1=O (stereo unspecified),"inconclusive: 15.8 µM [inhibitor, partial curve, poor fit]",
Cc1cc(CNC(=O)C2(C(N)=O)CC2)c2[nH]c(-c3ccccc3)c(C)c2c1,active: 28.2 µM,
COc1ccc(OC)c(S(=O)(=O)NCCc2sc(-c3cccnc3)nc2C)c1,"inconclusive: 25.1 µM [inhibitor, partial curve, poor fit]",
Cc1cc(C)n2ncc(-c3noc(C(=O)NC4CCCC4)n3)c2n1,"inconclusive: 28.2 µM [inhibitor, single point]",
COCCN(Cc1cnn(C)c1)C(=O)c1ccc2nc(C)cn2c1,"inconclusive: 28.2 µM [inhibitor, single point]",
C[S+](=O)([O-])N1CCC(Cn2ccc3c(N4CCOCC4)nc(-c4cccc(O)c4)cc32)CC1,"inconclusive: 3.16 µM [inhibitor, partial curve, poor fit]",
COc1ccc(NC(=O)CSc2ccc(-c3ccco3)nn2)cc1OC,"inconclusive: 14.1 µM [inhibitor, partial curve, poor fit]",
COC(=O)c1ccc(C2C(C#N)=C(N)Oc3c2ccc2ccccc32)cc1 (stereo unspecified),"inconclusive: 15.8 µM [inhibitor, partial curve, poor fit]",
O=C(c1ccc(OC(F)(F)F)cc1)N1CCN(c2cc(-c3ccc(Cl)cc3)[nH]n2)CC1,,inactive: -1.06%
Cc1ccc(C(=O)O)cc1N1CC(O)=C(c2nc3ccccc3n2C)C1=N,,inactive: 7.55%
CC(C)CCn1nc(C(=O)OCC#N)c2ccccc2c1=O,,inactive: 11.9%
Cc1ccc(-c2nn(CC(O)COCc3ccccc3)c(=O)c3ccccc23)cc1 (stereo unspecified),,inactive: 9.13%
CCN(CC)c1ncccc1CNC(=O)c1coc2c1C(=O)CCC2,"inconclusive: 39.8 µM [inhibitor, single point]",
CCN1c2cc(C(=O)NCc3ccc(Cl)cc3)ccc2C(=O)N2CCCCC21 (stereo unspecified),"inconclusive: 22.4 µM [inhibitor, partial curve, poor fit]",
Cc1nc2c(c(C)c1CCC(=O)N1CCN(c3ccccc3)CC1)c(=O)n(C)c(=O)n2C,,inconclusive: -32.3% [inhibitor]
COc1cccc(NC(=O)c2cnc3c(c2)N(C(=O)Cc2ccc(C(C)C)cc2)CCC3)c1,"inconclusive: 39.8 µM [inhibitor, single point]",
COc1ccc(C2C=C(c3ccccc3)Nc3nc(NS(=O)(=O)c4ccccc4)nn32)cc1 (stereo unspecified),"inconclusive: 31.6 µM [inhibitor, partial curve, poor fit]",
c1cn(-c2ccc3ncsc3c2)c(-c2cc3n(n2)CCCNC3)n1,active: 3.55 µM,

SMILES,Potency,"activity change, negative = inhibition"
COCCCNC(=O)c1ccc(CSc2nc3cccnc3n2Cc2ccc(OC)cc2)cc1,"inconclusive: 15.8 µM [inhibitor, partial curve, poor fit]",
Cc1cc(C)c(S(=O)(=O)Nc2ccc3oc4c(c3c2)CCCC4)cc1C,,inconclusive: -36.4% [inhibitor]
O=C(N1CCC(c2noc(C3CC3)n2)C1)C1(c2ccccc2)CC1 (stereo unspecified),,inactive: 7.84%
CC(=O)Oc1ccc2c(=O)c(-c3ccc4c(c3)OCCO4)c(C)oc2c1,"inconclusive: 1.78 µM [inhibitor, partial curve, poor fit]",
Cc1ccc(NC(=O)c2cnc(N3CCCC3)nc2C)cc1F,"inconclusive: 31.6 µM [inhibitor, single point]",
CCOc1ccc(-n2cc(-c3ccccc3)c3c(Nc4cccc(F)c4)ncnc32)cc1,"inconclusive: 15.8 µM [inhibitor, partial curve, poor fit]",
COc1ccc(NC(=O)CNC(=O)Cn2c(C)cc3ccccc3c2=O)c(OC)c1,"inconclusive: 50.1 µM [inhibitor, single point]",
CCCCSc1nc2sc3c(c2c(=O)n1-c1ccccc1C)CC(C)(C)OC3,,inactive: -53.9%
Cn1cc(C(=O)NCCNC(=O)C2CCCCC2)c2ccccc21,,inactive: 2.39%
Cc1ccc2onc(CC(=O)N3CCN(c4cccc(Cl)c4)CC3)c2c1,,inconclusive: -30.9% [inhibitor]
Cc1nn2c(c1-c1ccccc1N1CCCC1)N(C(=O)c1cc3ccccc3n1C)CCC2,"inconclusive: 25.1 µM [inhibitor, partial curve]",
O=C1CC(c2ccccc2F)c2ncn(-c3ccccc3F)c2N1 (stereo unspecified),"inconclusive: 25.1 µM [inhibitor, partial curve, poor fit]",
O=c1oc2ccccc2cc1-c1cn2cc(Cc3cc(Cl)ccc3Cl)sc2n1,"inconclusive: 25.1 µM [inhibitor, partial curve, poor fit]",
COc1cncc(Nc2cnc3ccc(-c4ccc(OC)nc4)nn23)c1,"inconclusive: 28.2 µM [inhibitor, single point]",
Cc1cccc(NC(=O)CCN2CCN(Cc3cccc4ccccc34)CC2)c1,,inactive: -4.43%
O=C1Nc2ccc(/C=C/c3ccccc3)cc2C(=O)N2CC[C@H](NS(=O)(=O)c3cccs3)[C@@H]12,active: 31.6 µM,
CCc1cc(=O)n(CC(=O)NCCc2ccc(Cl)cc2)c(N2CCOCC2)n1,"inconclusive: 20 µM [inhibitor, partial curve]",
Cc1csc2nc(COC(=O)CNC(=O)c3ccccc3)cc(=O)n12,"inconclusive: 28.2 µM [inhibitor, partial curve, poor fit]",
O=C(Nc1ccc2oc(-c3cccc(Br)c3)nc2c1)c1ccc2c(c1)OCCO2,,inactive: -3.73%
Cc1ccc2c(C(=O)O)cc(NC(=O)C3CCC3)cc2n1,active: 22.4 µM,
COc1ccc(Cl)cc1CO/N=C/c1cccc(OC)c1OC,"inconclusive: 39.8 µM [inhibitor, single point]",
O=C(CSc1ncccc1C(=O)Oc1ccccc1Cl)Nc1ccc(C(F)(F)F)cc1Cl,"inconclusive: 15.8 µM [inhibitor, partial curve, poor fit]",

SMILES,Potency,"activity change, negative = inhibition"
COc1cccc(CNC(=O)c2ncoc2-c2cccs2)c1,"inconclusive: 22.4 µM [inhibitor, partial curve, poor fit]",
CCOc1ccc(-c2cc3c(=O)n(CC(=O)NCc4ccc(F)cc4)ccn3n2)cc1,,inactive: -11.6%
Cc1ccc(S(=O)(=O)c2nnn3c2nc(N2CCOCC2)c2ccccc23)cc1,active: 79.4 µM,
CCOC(=O)c1cccc(NC(=O)CCS(=O)(=O)c2ccc3c(c2)CCN3C(=O)CC)c1,"inconclusive: 39.8 µM [inhibitor, single point]",
Cc1ccc(C(=O)N(C)[C@H]2C[C@H]3c4[nH]c5c(-c6cccc(C)c6)cccc5c4CCN3C[C@H]2[C@H](C)O)cc1,"inconclusive: 5.01 µM [inhibitor, full curve, poor fit]",
CC(C)CCn1nc(C(=O)NCCc2ccc(S(N)(=O)=O)cc2)c2ccccc2c1=O,,inactive: 7.2%
COc1ccc(S(=O)(=O)N2CCC(C(=O)Nc3ccccc3F)CC2)c2cccnc12,,inactive: 25%
Cn1nc(-c2nncn2Cc2ccccc2)c2c1CCN(C(=O)c1ccncc1)C2,"inconclusive: 8.91 µM [inhibitor, partial curve]",
CC(CCc1ccccc1)Nc1ncnc2c1CN(C1CCNC1)C(=O)CN2C (stereo unspecified),"inconclusive: 44.7 µM [inhibitor, partial curve]",
Cn1cnc(C(=O)N2CCCCCCn3c(nnc3-c3ccc(F)cc3)CC2)c1,"inconclusive: 3.55 µM [inhibitor, full curve, poor fit]",
COc1cccc(NC(=O)c2c(C)oc3nc(C)nc(N4CCCC4)c23)c1,,inactive: -16.1%
O=C(NCc1ccncc1)c1cn(C2CN(C(=O)Nc3ccc4c(c3)OCCO4)C2)nn1,"inconclusive: 39.8 µM [inhibitor, single point]",
CCc1nc2cc(N3CCC(C(=O)NCc4ccccc4F)CC3)cnc2nc1CC,"inconclusive: 10 µM [inhibitor, partial curve]",
NC(=O)C1CCN(C(=O)COc2ccc3c(=O)c(-c4ccccc4)coc3c2)CC1,,inactive: 1.6%
CC(=O)c1ccc(C(=O)Nc2ccc(SC3CCCC3)cc2)s1,,inactive: 14.8%
COc1ccc(CN2CCC(O)(CN3CCCCC3)C2)cc1Cl (stereo unspecified),,inactive: 6.68%
O=C(CSc1nccn1Cc1ccc(F)cc1)NCc1ccco1,,inactive: -11.6%
COC(=O)C(C#N)c1nc2ccccc2nc1NCC(C)(C)CN(C)C (stereo unspecified),"inconclusive: 20 µM [inhibitor, partial curve, poor fit]",
Cc1ccc(C(=O)N2CCC(N3CCCNC3=O)CC2)cc1,inactive,
NC(=O)c1cccnc1N1CCC(Oc2ccc(Cl)cc2)(C(=O)O)CC1,"inconclusive: 1.41 µM [inhibitor, full curve]",
COc1ccc(C(=O)N2CCCCCNC(=O)[C@@H]3CCCC[C@@H]32)cc1F,,inactive: 1.68%
O=C1Nc2ccc(-c3cccc(C(F)(F)F)c3)cc2C(=O)N2CCN(C(=O)C3CCNCC3)C[C@H]12,"inconclusive: 20 µM [inhibitor, single point]",
